# According to the supplement of paper PMC8728848:
# Some of the results follow.
# B1: Pul13 (Thermotoga maritima), O33840 (protein)
# chain: ETTIVVHYHRYDGKYDGWNLWIWPVEPVSQEGKAYQFTGEDDFGKVAVVKLPMDLTKVGIIVRLNEWQAKDVAKDRFIEIKDGKAEVWILQGVEEIFYEKP
# Experiments:
# Assay in all cases: glycan array binding signal (z-score within array); higher = stronger binding
# Details in all cases: glycan notation: IUPAC condensed, linker removed
# Glc(a1-2)Glc = molecular target: Glc(a1-2)Glc
# In short: (§1)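 Glycan array data came from 3228 arrays in the Consortium for Functional Glycomics database, and only arrays with an available protein sequence were kept. Glycan names were put into IUPAC-condensed notation, and columns mapping to the same glycan were averaged. The binding signal is a within-array Z-score, averaged across arrays of one protein sequence run at different concentrations or buffers and across linkers. A negative Z-score can be read as non-binding.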
# Glc(a1-2)Glc(a1-2)Glc = molecular target: Glc(a1-2)Glc(a1-2)Glc
# In short: as §1
# [1] = molecular target: Glc(a1-2)Glc(a1-2)Glc(a1-2)Glc
# In short: as §1
# [2] = molecular target: Glc(a1-2)Glc(a1-2)Glc(a1-2)Glc(a1-2)Glc
# In short: as §1
# [3] = molecular target: Glc(a1-2)Glc(a1-2)Glc(a1-2)Glc(a1-2)Glc(a1-2)Glc
# In short: as §1
# [4] = molecular target: Glc(a1-2)Glc(a1-2)Glc(a1-2)Glc(a1-2)Glc(a1-2)Glc(a1-2)Glc
# In short: as §1
# [5] = molecular target: Glc(a1-2)Glc(a1-2)Glc(a1-2)Glc(a1-2)Glc(a1-2)Glc(a1-2)Glc(a1-2)Glc
# In short: as §1
# [6] = molecular target: Glc(a1-2)Glc(a1-2)Glc(a1-2)Glc(a1-2)Glc(a1-2)Glc(a1-2)Glc(a1-2)Glc(a1-2)Glc
# In short: as §1
# Glc(a1-3)Glc = molecular target: Glc(a1-3)Glc
# In short: as §1
# Glc(a1-3)Glc(a1-3)Glc = molecular target: Glc(a1-3)Glc(a1-3)Glc
# In short: as §1
# [7] = molecular target: Glc(a1-3)Glc(a1-3)Glc(a1-3)Glc
# In short: as §1
# [8] = molecular target: Glc(a1-3)Glc(a1-3)Glc(a1-3)Glc(a1-3)Glc
# In short: as §1
# [9] = molecular target: Glc(a1-3)Glc(a1-3)Glc(a1-3)Glc(a1-3)Glc(a1-3)Glc
# In short: as §1
# [10] = molecular target: Glc(a1-3)Glc(a1-3)Glc(a1-3)Glc(a1-3)Glc(a1-3)Glc(a1-3)Glc
# In short: as §1
# [11] = molecular target: Glc(a1-3)Glc(a1-3)Glc(a1-3)Glc(a1-3)Glc(a1-3)Glc(a1-3)Glc(a1-3)Glc
# In short: as §1
# [12] = molecular target: Glc(a1-3)Glc(a1-3)Glc(a1-3)Glc(a1-3)Glc(a1-3)Glc(a1-3)Glc(a1-3)Glc(a1-3)Glc
# In short: as §1
# [13] = molecular target: Glc(a1-3)Glc(a1-3)Glc(a1-3)Glc(a1-3)Glc(a1-3)Glc(a1-3)Glc(a1-3)Glc(a1-3)Glc(a1-3)Glc
# In short: as §1
# [14] = molecular target: Glc(a1-3)Glc(a1-3)Glc(a1-3)Glc(a1-3)Glc(a1-3)Glc(a1-3)Glc(a1-3)Glc(a1-3)Glc(a1-3)Glc(a1-3)Glc
# In short: as §1
# [15] = molecular target: Glc(a1-3)Glc(a1-3)Glc(a1-3)Glc(a1-3)Glc(a1-3)Glc(a1-3)Glc(a1-3)Glc(a1-3)Glc(a1-3)Glc(a1-3)Glc(a1-3)Glc
# In short: as §1
# [16] = molecular target: Glc(a1-3)Glc(a1-3)Glc(a1-3)Glc(a1-3)Glc(a1-3)Glc(a1-3)Glc(a1-3)Glc(a1-3)Glc(a1-3)Glc(a1-3)Glc(a1-3)Glc(a1-3)Glc
# In short: as §1
# Glc(a1-4)Glc = molecular target: Glc(a1-4)Glc
# In short: as §1
# Glc(a1-4)Glc(a1-4)Glc = molecular target: Glc(a1-4)Glc(a1-4)Glc
# In short: as §1
# [17] = molecular target: Glc(a1-4)Glc(a1-4)Glc(a1-4)Glc
# In short: as §1
# [18] = molecular target: Glc(a1-4)Glc(a1-4)Glc(a1-4)Glc(a1-4)Glc
# In short: as §1
# [19] = molecular target: Glc(a1-4)Glc(a1-4)Glc(a1-4)Glc(a1-4)Glc(a1-4)Glc
# In short: as §1
# [20] = molecular target: Glc(a1-4)Glc(a1-4)Glc(a1-4)Glc(a1-4)Glc(a1-4)Glc(a1-4)Glc
# In short: as §1
# [21] = molecular target: Glc(a1-4)Glc(a1-4)Glc(a1-4)Glc(a1-4)Glc(a1-4)Glc(a1-4)Glc(a1-4)Glc
# In short: as §1
# [22] = molecular target: Glc(a1-4)Glc(a1-4)Glc(a1-4)Glc(a1-4)Glc(a1-4)Glc(a1-4)Glc(a1-4)Glc(a1-4)Glc
# In short: as §1
# [23] = molecular target: Glc(a1-4)Glc(a1-4)Glc(a1-4)Glc(a1-4)Glc(a1-4)Glc(a1-4)Glc(a1-4)Glc(a1-4)Glc(a1-4)Glc
# In short: as §1
# [24] = molecular target: Glc(a1-4)Glc(a1-4)Glc(a1-4)Glc(a1-4)Glc(a1-4)Glc(a1-4)Glc(a1-4)Glc(a1-4)Glc(a1-4)Glc(a1-4)Glc
# In short: as §1
# [25] = molecular target: Glc(a1-4)Glc(a1-4)Glc(a1-4)Glc(a1-4)Glc(a1-4)Glc(a1-4)Glc(a1-4)Glc(a1-4)Glc(a1-4)Glc(a1-4)Glc(a1-4)Glc
# In short: as §1
# [26] = molecular target: Glc(a1-4)Glc(a1-4)Glc(a1-4)Glc(a1-4)Glc(a1-4)Glc(a1-4)Glc(a1-4)Glc(a1-4)Glc(a1-4)Glc(a1-4)Glc(a1-4)Glc(a1-4)Glc
# In short: as §1
# Glc(a1-4)Glc(a1-6)Glc = molecular target: Glc(a1-4)Glc(a1-6)Glc
# In short: as §1
# Glc(a1-6)Glc = molecular target: Glc(a1-6)Glc
# In short: as §1
# Glc(a1-6)Glc(a1-4)Glc = molecular target: Glc(a1-6)Glc(a1-4)Glc
# In short: as §1
# [27] = molecular target: Glc(a1-6)Glc(a1-4)Glc(a1-4)Glc
# In short: as §1
# [28] = molecular target: Glc(a1-6)Glc(a1-4)Glc(a1-4)Glc(a1-6)Glc(a1-4)Glc(a1-4)Glc
# In short: as §1
# Glc(a1-6)Glc(a1-6)Glc = molecular target: Glc(a1-6)Glc(a1-6)Glc
# In short: as §1
# [29] = molecular target: Glc(a1-6)Glc(a1-6)Glc(a1-6)Glc
# In short: as §1
# [30] = molecular target: Glc(a1-6)Glc(a1-6)Glc(a1-6)Glc(a1-6)Glc
# In short: as §1
# [31] = molecular target: Glc(a1-6)Glc(a1-6)Glc(a1-6)Glc(a1-6)Glc(a1-6)Glc
# In short: as §1
# [32] = molecular target: Glc(a1-6)Glc(a1-6)Glc(a1-6)Glc(a1-6)Glc(a1-6)Glc(a1-6)Glc
# In short: as §1
# [33] = molecular target: Glc(a1-6)Glc(a1-6)Glc(a1-6)Glc(a1-6)Glc(a1-6)Glc(a1-6)Glc(a1-6)Glc
# In short: as §1
# [34] = molecular target: Glc(a1-6)Glc(a1-6)Glc(a1-6)Glc(a1-6)Glc(a1-6)Glc(a1-6)Glc(a1-6)Glc(a1-6)Glc
# In short: as §1
# [35] = molecular target: Glc(a1-6)Glc(a1-6)Glc(a1-6)Glc(a1-6)Glc(a1-6)Glc(a1-6)Glc(a1-6)Glc(a1-6)Glc(a1-6)Glc
# In short: as §1
binder,measurement,setting,value
B1,glycan array binding signal (z-score),Glc(a1-2)Glc,-0.351
same,glycan array binding signal (z-score),Glc(a1-2)Glc(a1-2)Glc,-0.351
same,glycan array binding signal (z-score),[1],-0.351
same,glycan array binding signal (z-score),[2],-0.351
same,glycan array binding signal (z-score),[3],-0.351
same,glycan array binding signal (z-score),[4],-0.351
same,glycan array binding signal (z-score),[5],-0.351
same,glycan array binding signal (z-score),[6],-0.351
same,glycan array binding signal (z-score),Glc(a1-3)Glc,-0.351
same,glycan array binding signal (z-score),Glc(a1-3)Glc(a1-3)Glc,-0.343
same,glycan array binding signal (z-score),[7],-0.335
same,glycan array binding signal (z-score),[8],-0.346
same,glycan array binding signal (z-score),[9],-0.335
same,glycan array binding signal (z-score),[10],-0.23
same,glycan array binding signal (z-score),[11],-0.115
same,glycan array binding signal (z-score),[12],-0.341
same,glycan array binding signal (z-score),[13],-0.18
same,glycan array binding signal (z-score),[14],-0.268
same,glycan array binding signal (z-score),[15],-0.3
same,glycan array binding signal (z-score),[16],-0.231
same,glycan array binding signal (z-score),Glc(a1-4)Glc,-0.202
same,glycan array binding signal (z-score),Glc(a1-4)Glc(a1-4)Glc,1.03
same,glycan array binding signal (z-score),[17],2.43
same,glycan array binding signal (z-score),[18],2.46
same,glycan array binding signal (z-score),[19],3.61
same,glycan array binding signal (z-score),[20],3.13
same,glycan array binding signal (z-score),[21],4.12
same,glycan array binding signal (z-score),[22],2.46
same,glycan array binding signal (z-score),[23],2.94
same,glycan array binding signal (z-score),[24],2.87
same,glycan array binding signal (z-score),[25],3.44
same,glycan array binding signal (z-score),[26],3.31
same,glycan array binding signal (z-score),Glc(a1-4)Glc(a1-6)Glc,1.08
same,glycan array binding signal (z-score),Glc(a1-6)Glc,-0.351
same,glycan array binding signal (z-score),Glc(a1-6)Glc(a1-4)Glc,-0.351
same,glycan array binding signal (z-score),[27],-0.286
same,glycan array binding signal (z-score),[28],2.47
same,glycan array binding signal (z-score),Glc(a1-6)Glc(a1-6)Glc,-0.283
same,glycan array binding signal (z-score),[29],-0.351
same,glycan array binding signal (z-score),[30],-0.351
same,glycan array binding signal (z-score),[31],-0.351
same,glycan array binding signal (z-score),[32],-0.351
same,glycan array binding signal (z-score),[33],-0.351
same,glycan array binding signal (z-score),[34],-0.351
same,glycan array binding signal (z-score),[35],-0.351
